Measured values: paper PMC4335499
No constants are given. Whether binding was seen depends on the method and setting. Some entries that bind do so weakly or less than the wild type.

How the values were obtained:
Assay in all cases: two-hybrid; Pab1/PABP1 constructs fused to the Gal4 DNA-binding domain (pOBD2), eIF4G fragments fused to the Gal4 activation domain (pOAD); yeast strain PJ694a; HIS3 reporter; cells spotted in a dilution series on synthetic complete plates lacking leucine and tryptophan, with or without histidine, 30°C, three days
[1] = biological target: Pab1 RRM2 (amino acids 123-204) T145L (S. cerevisiae) (UniProt P04147)
[2] = biological target: Pab1 RRM2 (amino acids 123-204) A158E (S. cerevisiae) (UniProt P04147)
[3] = biological target: Pab1 RRM2 (amino acids 123-204) K156N (S. cerevisiae) (UniProt P04147)
[4] = biological target: Pab1 RRM2 (amino acids 123-204) E181R (S. cerevisiae) (UniProt P04147)
[5] = biological target: Pab1 RRM2 (amino acids 123-204) [D184E, A185K, L186M] (S. cerevisiae) (UniProt P04147)
[6] = biological target: Pab1 RRM2 (amino acids 123-204) K180E (S. cerevisiae) (UniProt P04147)
[7] = biological target: Pab1 RRM2 (amino acids 123-204) D184E (S. cerevisiae) (UniProt P04147)
[8] = biological target: Pab1 RRM2 (amino acids 123-204) L153V (S. cerevisiae) (UniProt P04147)
[9] = biological target: Pab1 RRM2 (amino acids 123-204) A185K (S. cerevisiae) (UniProt P04147)
[10] = biological target: Pab1 RRM2 (amino acids 123-204) K140A (S. cerevisiae) (UniProt P04147)
[11] = biological target: Pab1 RRM2 (amino acids 123-204) Y197V (S. cerevisiae) (UniProt P04147)
[12] = biological target: Pab1 RRM2 (amino acids 123-204), wild type (S. cerevisiae) (UniProt P04147)
[13] = biological target: Pab1 RRM2 (amino acids 123-204) D184W (S. cerevisiae) (UniProt P04147)
[14] = biological target: Pab1 amino acids 1-204 (RRM1-RRM2) (S. cerevisiae) (UniProt P04147)
[15] = biological target: Pab1 RRM2 (amino acids 123-204) [G177E, L186M] (S. cerevisiae) (UniProt P04147)

binding [1]: binds
binding [2]: binds
binding [3]: binds
binding [4]: no binding
binding [5]: no binding
binding [6]: binds
binding [7]: binds
binding [8]: binds
binding [9]: no binding
binding [10]: binds
binding [11]: binds
binding [12]: binds
binding [13]: binds
binding [14]: no binding
binding [15]: binds
B1: yeast eIF4G2 N-terminus (amino acids 1-341) (domain or fragment, UniProt P39936 1-341)
chain: MTDQRGPPPPHPQQANGYKKFPPHDNQYSGANNSQPNNHYNENLYSAREPHNNKQYQSKNGKYGTNKYNNRNNSQGNAQYYNNRFNNGYRLNNNDYNPAMLPGMQWPANYYAPQMYYIPQQMVPVASPPYTHQPLNTNPEPPSTPKTTKIEITTKTGERLNLKKFHEEKKASKGEEKNDGVEQKSKSGTPFEKEATPVLPANEAVKDTLTETSNEKSTSEAENTKRLFLEQVRLRKAAMERKKNGLISETEKKQETSNHDNTDTTKPNSVIESEPIKEAPKPTGEANEVVIDGKSGASVKTPQHVTGSVTKSVTFNEPENESSSQDVDELVKDDDTTEISD
